The target in test [1] is T1, Tap-tagged Rrp4 (yeast) (UniProt P38792).
T1 sequence: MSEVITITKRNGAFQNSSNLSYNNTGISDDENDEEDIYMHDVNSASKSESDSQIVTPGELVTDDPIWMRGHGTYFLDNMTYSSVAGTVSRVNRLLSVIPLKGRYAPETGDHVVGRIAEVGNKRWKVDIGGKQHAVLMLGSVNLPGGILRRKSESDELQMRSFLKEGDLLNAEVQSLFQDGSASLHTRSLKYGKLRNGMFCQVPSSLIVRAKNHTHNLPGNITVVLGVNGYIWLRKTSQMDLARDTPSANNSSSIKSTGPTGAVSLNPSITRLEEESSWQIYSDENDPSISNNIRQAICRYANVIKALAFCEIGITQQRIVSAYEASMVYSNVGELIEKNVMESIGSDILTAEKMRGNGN
Kind of test: co-IP; 2 mg of extract of cells expressing a Tap-tagged protein incubated overnight at 4°C with protein G magnetic beads with or without antibody against CBP; 40 mM Hepes pH 7.5, 1 mM EDTA, 20% glycerol, 150 mM potassium acetate, 100 mM potassium chloride; wild-type, caf40Δ or not4Δ cells as named; western blot.

In test [2] the target is T2, Tap-tagged Rrp43 (yeast) (UniProt P25359).
T2 sequence: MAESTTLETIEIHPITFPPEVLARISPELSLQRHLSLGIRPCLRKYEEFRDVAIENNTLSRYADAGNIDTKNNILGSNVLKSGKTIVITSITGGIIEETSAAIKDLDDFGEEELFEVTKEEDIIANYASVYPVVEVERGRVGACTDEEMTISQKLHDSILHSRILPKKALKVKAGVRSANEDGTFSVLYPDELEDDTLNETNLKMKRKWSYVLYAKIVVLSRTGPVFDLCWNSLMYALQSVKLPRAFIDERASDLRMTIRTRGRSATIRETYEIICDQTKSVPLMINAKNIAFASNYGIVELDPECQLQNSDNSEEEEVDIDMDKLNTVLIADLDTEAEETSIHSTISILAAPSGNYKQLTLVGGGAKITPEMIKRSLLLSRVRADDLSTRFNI
The test is described as above.

Test [3] has as its target T3, Tap-tagged Mtr3 (yeast) (UniProt P48240).
T3 sequence: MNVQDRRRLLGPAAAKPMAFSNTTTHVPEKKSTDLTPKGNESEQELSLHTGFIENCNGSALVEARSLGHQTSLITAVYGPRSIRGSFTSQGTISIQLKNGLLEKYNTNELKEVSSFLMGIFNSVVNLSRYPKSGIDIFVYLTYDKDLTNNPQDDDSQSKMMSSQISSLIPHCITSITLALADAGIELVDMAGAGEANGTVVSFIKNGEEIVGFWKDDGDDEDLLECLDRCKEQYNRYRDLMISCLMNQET
Described as above.

Test [4] has as its target T4, Tap-tagged Csl4 (yeast) (UniProt P53859).
T4 sequence: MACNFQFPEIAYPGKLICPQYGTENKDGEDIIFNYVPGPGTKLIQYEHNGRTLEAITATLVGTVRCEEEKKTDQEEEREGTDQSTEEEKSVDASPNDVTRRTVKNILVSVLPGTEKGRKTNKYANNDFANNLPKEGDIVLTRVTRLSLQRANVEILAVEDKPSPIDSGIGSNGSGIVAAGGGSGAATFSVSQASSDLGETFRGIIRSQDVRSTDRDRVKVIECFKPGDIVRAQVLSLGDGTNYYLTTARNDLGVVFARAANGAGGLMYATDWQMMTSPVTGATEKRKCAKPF
Described as above.

In test [5] the target is T5, Tap-tagged Rrp45 (yeast) (UniProt Q05636).
T5 sequence: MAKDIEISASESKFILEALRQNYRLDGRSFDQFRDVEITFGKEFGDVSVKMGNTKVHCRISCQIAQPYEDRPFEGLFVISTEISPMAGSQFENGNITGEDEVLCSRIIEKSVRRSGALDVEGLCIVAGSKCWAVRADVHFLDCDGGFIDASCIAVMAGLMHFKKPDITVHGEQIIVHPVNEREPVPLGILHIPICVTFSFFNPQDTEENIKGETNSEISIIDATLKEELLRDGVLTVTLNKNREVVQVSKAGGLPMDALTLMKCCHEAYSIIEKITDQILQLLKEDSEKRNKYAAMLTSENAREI
The description is as above.

Test [6] addresses T6, Tap-tagged Rrp41 (yeast) (UniProt P46948).
T6 sequence: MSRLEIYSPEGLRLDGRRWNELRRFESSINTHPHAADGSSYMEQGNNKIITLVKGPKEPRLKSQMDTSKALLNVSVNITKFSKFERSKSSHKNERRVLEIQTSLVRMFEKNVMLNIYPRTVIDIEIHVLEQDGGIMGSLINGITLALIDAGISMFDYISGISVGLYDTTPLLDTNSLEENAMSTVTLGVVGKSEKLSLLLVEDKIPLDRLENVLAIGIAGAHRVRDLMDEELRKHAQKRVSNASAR
Kind of test: condition: only from wild-type cells or the other ccr4-not mutants, extract not treated with RNAse; co-IP; affinity purification of Tap-tagged Rrp41 from extracts of wild-type cells or of the other ccr4-not mutants, not treated with RNAse; blotted with antibodies against Not5 and CBP.

Test [7] has as its target T6, Tap-tagged Rrp41 (yeast). Kind of test: co-IP; affinity purification of Tap-tagged Rrp41 from total extracts of not4Δ or caf40Δ cells; purified material blotted with antibodies against Not5 and CBP.
The target in test [8] is T6, Tap-tagged Rrp41 (yeast). Kind of test: co-IP; tandem affinity purification of Tap-tagged Rrp41 from 2 g of wild-type total extract treated with RNAse A (for Rrp4 and Rrp43: treated or not); eluate blotted with antibodies against CBP, Rrp4, Rrp43 and Not5.

Binding data for 1 molecule are collected here from publication PMC2727002.

Results are given in words; binding and its absence hold for the method and conditions named. Binding seen in cells or lysates may run through a third protein. Some binding calls cover weakened binding; strength is not graded here. Tags and fused reporters may be left off the sequences shown.

B1: Not5 (protein, UniProt Q12514 1-560)
chain: MSQRKLQQDIDKLLKKVKEGIEDFDDIYEKFQSTDPSNSSHREKLESDLKREIKKLQKHRDQIKTWLSKEDVKDKQSVLMTNRRLIENGMERFKSVEKLMKTKQFSKEALTNPDIIKDPKELKKRDQVLFIHDCLDELQKQLEQYEAQENEEQTERHEFHIANLENILKKLQNNEMDPEPVEEFQDDIKYYVENNDDPDFIEYDTIYEDMGCEIQPSSSNNEAPKEGNNQTSLSSIRSSKKQERSPKKKAPQRDVSISDRATTPIAPGVESASQSISSTPTPVSTDTPLHTVKDDSIKFDNSTLGTPTTHVSMKKKESENDSEQQLNFPPDRTDEIRKTIQHDVETNAAFQNPLFNDELKYWLDSKRYLMQPLQEMSPKMVSQLESSLLNCPDSLDADSPCLYTKPLSLPHPTSIFFPNEPIRFVYPYDVPLNLTNNENDTDNKFGKDSKAKSKKDDDIYSRTSLARIFMKFDLDTLFFIFYHYQGSYEQFLAARELFKNRNWLFNKVDRCWYYKEIEKLPPGMGKSEEESWRYFDYKKSWLARRCGNDFVYNEEDFEKL
Regarding B1, the binding result is “binds” in test [1]; “binds” in test [2]; “binds” in test [3]; “binds” in test [4]; “binds” in test [5]; “no binding” in test [6]. The binding result in test [7] and in test [8] was “binds” in each case.
